Reference: the CheMixHub viscosity set

SMILES	viscosity (298.15 K, 101.3 kPa)	viscosity (298.15 K, 101.33 kPa)	viscosity (308.15 K, 101 kPa)	viscosity (308.15 K, 101.33 kPa)	viscosity (313.15 K, 101 kPa)	viscosity (318.15 K, 101.33 kPa)	viscosity (293.15 K, 101 kPa)	viscosity (303.15 K, 101 kPa)	viscosity (303.15 K, 101.33 kPa)	viscosity (318.15 K, 101 kPa)	viscosity (313.15 K, 101.33 kPa)	viscosity (298.15 K, 101 kPa)	viscosity (323.15 K, 101 kPa)
CC1COC(=O)O1 (stereo not given)	2.476 ± 0.052 mPa·s [study A] and 2.512 ± 0.1 mPa·s [study B] and 2.527 ± 0.022 mPa·s [study C] and 2.55 ± 0.032 mPa·s [study D]	2.471 ± 0.031 mPa·s, 2.471 ± 0.11 mPa·s, 2.493 ± 0.039 mPa·s, 2.471 ± 0.019 mPa·s, 2.493 ± 0.019 mPa·s, 2.493 ± 0.028 mPa·s (2×), 2.508 ± 0.016 mPa·s, 2.512 ± 0.04 mPa·s [several studies]	2.09 ± 0.031 mPa·s [study A] and 2.042 ± 0.063 mPa·s [study B] and 1.975 ± 0.12 mPa·s [study C] and 2.11 ± 0.02 mPa·s [study D] and 2.14 ± 0.02 mPa·s [study E]	2.048 ± 0.095 mPa·s [study A] and 2.048 ± 0.026 mPa·s [study B] and 2.048 ± 0.016 mPa·s [study C] and 2.041 ± 0.024 mPa·s [study D] and 2.086 ± 0.038 mPa·s [study E] and 2.041 ± 0.024 mPa·s [study F]	1.918 ± 0.029 mPa·s [study A] and 1.873 ± 0.062 mPa·s [study B] and 1.793 ± 0.11 mPa·s [study C] and 2 ± 0.02 mPa·s [study D]	1.723 ± 0.081 mPa·s [study A] and 1.723 ± 0.022 mPa·s [study B] and 1.724 ± 0.013 mPa·s, 1.723 ± 0.013 mPa·s [study C] and 1.718 ± 0.02 mPa·s [study D] and 1.718 ± 0.02 mPa·s [study E]							
Cc1ccccc1			0.486 ± 0.004 mPa·s, 0.501 ± 0.009 mPa·s, 0.5001 ± 0.013 mPa·s, 0.583 ± 0.004 mPa·s, 0.5068 ± 0.0053 mPa·s, 0.5011 ± 0.14 mPa·s, 0.5 ± 0.01 mPa·s, 0.4923 ± 0.011 mPa·s, 0.5128 ± 0.0066 mPa·s, 0.4999 ± 0.0066 mPa·s, 0.5118 ± 0.0066 mPa·s, 0.492 ± 0.007 mPa·s, 0.498 ± 0.036 mPa·s [several studies]	0.5011 ± 0.0064 mPa·s [study A] and 0.5248 ± 0.0071 mPa·s [study B] and 0.492 ± 0.014 mPa·s [study C] and 0.453 ± 0.013 mPa·s [study D] and 0.498 ± 0.004 mPa·s [study E]			0.5939 ± 0.0059 mPa·s [study A] and 0.584 ± 0.01 mPa·s [study B] and 0.586 ± 0.016 mPa·s [study C] and 0.5861 ± 0.015 mPa·s [study D]	0.529 ± 0.014 mPa·s, 0.524 ± 0.01 mPa·s, 0.531 ± 0.004 mPa·s, 0.521 ± 0.005 mPa·s, 0.5243 ± 0.014 mPa·s, 0.521 ± 0.014 mPa·s, 0.609 ± 0.004 mPa·s, 0.5236 ± 0.014 mPa·s, 0.5275 ± 0.15 mPa·s, 0.517 ± 0.031 mPa·s, 0.539 ± 0.015 mPa·s, 0.524 ± 0.007 mPa·s, 0.527 ± 0.0055 mPa·s [several studies]	0.538 ± 0.014 mPa·s [study A] and 0.521 ± 0.004 mPa·s [study B] and 0.479 ± 0.014 mPa·s [study C] and 0.5211 ± 0.029 mPa·s [study D]	0.4939 ± 0.013 mPa·s, 0.538 ± 0.004 mPa·s, 0.4508 ± 0.017 mPa·s, 0.4524 ± 0.13 mPa·s, 0.45 ± 0.01 mPa·s, 0.462 ± 0.0062 mPa·s, 0.4447 ± 0.0052 mPa·s, 0.3759 ± 0.038 mPa·s, 0.448 ± 0.009 mPa·s [several studies]			
COc1ccccc1		0.986 ± 0.027 mPa·s [study A] and 1.002 ± 0.026 mPa·s [study B] and 0.917 ± 0.023 mPa·s [study C] and 1.085 ± 0.057 mPa·s [study D]		0.851 ± 0.023 mPa·s [study A] and 0.8896 ± 0.024 mPa·s [study B] and 0.788 ± 0.02 mPa·s [study C] and 0.874 ± 0.008 mPa·s [study D]	0.764 ± 0.018 mPa·s [study A] and 0.784 ± 0.05 mPa·s [study B] and 0.795 ± 0.039 mPa·s [study C] and 0.784 ± 0.016 mPa·s [study D] and 0.87 ± 0.02 mPa·s [study E] and 0.806 ± 0.02 mPa·s [study F] and 0.7814 ± 0.02 mPa·s [study G] and 0.7926 ± 0.0082 mPa·s [study H]		1.071 ± 0.051 mPa·s [study A] and 1.07 ± 0.04 mPa·s [study B] and 1.07 ± 0.022 mPa·s [study C] and 1.28 ± 0.03 mPa·s [study D]	0.923 ± 0.019 mPa·s [study A] and 0.92 ± 0.04 mPa·s [study B] and 0.906 ± 0.019 mPa·s [study C] and 1.04 ± 0.03 mPa·s [study D] and 0.907 ± 0.024 mPa·s [study E] and 0.9196 ± 0.009 mPa·s [study F]	0.9315 ± 0.025 mPa·s [study A] and 0.848 ± 0.022 mPa·s [study B] and 0.941 ± 0.008 mPa·s [study C] and 0.908 ± 0.03 mPa·s [study D] and 0.908 ± 0.011 mPa·s, 0.905 ± 0.011 mPa·s [study E] and 0.915 ± 0.011 mPa·s [study F]		0.7977 ± 0.021 mPa·s [study A] and 0.786 ± 0.026 mPa·s [study B] and 0.786 ± 0.01 mPa·s [study C] and 0.793 ± 0.009 mPa·s [study D]		
C1CCOC1								0.4683 ± 0.014 mPa·s [study A] and 0.454 ± 0.012 mPa·s [study B] and 0.448 ± 0.018 mPa·s [study C] and 0.4331 ± 0.0053 mPa·s [study D] and 0.476 ± 0.01 mPa·s [study E] and 0.4656 ± 0.004 mPa·s [study F] and 0.459 ± 0.011 mPa·s [study G] and 0.5 ± 0.05 mPa·s [study H]					
CC(C)=O			0.281 ± 0.016 mPa·s [study A] and 0.2982 ± 0.0035 mPa·s [study B] and 0.25 ± 0.0047 mPa·s [study C] and 0.2907 ± 0.0079 mPa·s [study D] and 0.3097 ± 0.02 mPa·s [study E] and 0.288 ± 0.003 mPa·s [study F] and 0.28 ± 0.019 mPa·s [study G] and 0.2809 ± 0.0047 mPa·s [study H]				0.3298 ± 0.0089 mPa·s [study A] and 0.323 ± 0.004 mPa·s [study B] and 0.3417 ± 0.0092 mPa·s [study C] and 0.321 ± 0.004 mPa·s [study D] and 0.326 ± 0.007 mPa·s [study E] and 0.324 ± 0.004 mPa·s [study F] and 0.3194 ± 0.0086 mPa·s [study G]	0.27 ± 0.003 mPa·s, 0.33 ± 0.009 mPa·s, 0.3033 ± 0.0082 mPa·s, 0.303 ± 0.007 mPa·s, 0.293 ± 0.019 mPa·s, 0.2907 ± 0.0079 mPa·s, 0.299 ± 0.004 mPa·s, 0.294 ± 0.0034 mPa·s, 0.2633 ± 0.0047 mPa·s, 0.301 ± 0.017 mPa·s [several studies]				0.3065 ± 0.0083 mPa·s, 0.3047 ± 0.0039 mPa·s, 0.3172 ± 0.0086 mPa·s, 0.31 ± 0.004 mPa·s, 0.3075 ± 0.0035 mPa·s, 0.316 ± 0.011 mPa·s, 0.3045 ± 0.0083 mPa·s, 0.305 ± 0.008 mPa·s, 0.3125 ± 0.0029 mPa·s, 0.311 ± 0.004 mPa·s, 0.309 ± 0.019 mPa·s, 0.277 ± 0.0048 mPa·s, 0.319 ± 0.004 mPa·s, 0.3332 ± 0.02 mPa·s, 0.3214 ± 0.0037 mPa·s, 0.308 ± 0.004 mPa·s [several studies]	0.2639 ± 0.0032 mPa·s [study A] and 0.2547 ± 0.007 mPa·s [study B] and 0.2725 ± 0.018 mPa·s [study C] and 0.276 ± 0.007 mPa·s [study D] and 0.248 ± 0.003 mPa·s [study E]

± gives the uncertainty stated by the source. For part of its entries the source gives two or more results. They are shown here; other results are not. There may be further records. Values that stand side by side are repeats (runs, samples, wells, individuals or studies). Brackets tell where a record comes from. Letters count within one entry. Marks such as (2×) count equal records among those shown.
